# Data from PubChem BioAssay AID504332 (National Center for Advancing Translational Sciences (NCATS), 2011).
# “And” between values parts separate entries of the source, which are not always exact repeats. Identical values can stand only once. The whole screen tested about 350,000 compounds, of which about 31,000 (8.9%) were called active. This list was built around the results that the source calls inconclusive (neither active nor inactive); the mix of calls is not that of the screen. The call rests on the fitted dose curve; in most records, active means well fitted inhibition curve with a large enough effect; inconclusive means small, poorly fitted or top-dose-only effect; inactive means no such curve, though single readings can be large or run the other way. A potency beside an inconclusive call is a rough fit, not a confirmed value.
# Target: Histone-lysine N-methyltransferase EHMT2 (Homo sapiens) (UniProt Q96KQ7)
# Chain of UniProt Q96KQ7 (Q96KQ7 whole entry, looked up): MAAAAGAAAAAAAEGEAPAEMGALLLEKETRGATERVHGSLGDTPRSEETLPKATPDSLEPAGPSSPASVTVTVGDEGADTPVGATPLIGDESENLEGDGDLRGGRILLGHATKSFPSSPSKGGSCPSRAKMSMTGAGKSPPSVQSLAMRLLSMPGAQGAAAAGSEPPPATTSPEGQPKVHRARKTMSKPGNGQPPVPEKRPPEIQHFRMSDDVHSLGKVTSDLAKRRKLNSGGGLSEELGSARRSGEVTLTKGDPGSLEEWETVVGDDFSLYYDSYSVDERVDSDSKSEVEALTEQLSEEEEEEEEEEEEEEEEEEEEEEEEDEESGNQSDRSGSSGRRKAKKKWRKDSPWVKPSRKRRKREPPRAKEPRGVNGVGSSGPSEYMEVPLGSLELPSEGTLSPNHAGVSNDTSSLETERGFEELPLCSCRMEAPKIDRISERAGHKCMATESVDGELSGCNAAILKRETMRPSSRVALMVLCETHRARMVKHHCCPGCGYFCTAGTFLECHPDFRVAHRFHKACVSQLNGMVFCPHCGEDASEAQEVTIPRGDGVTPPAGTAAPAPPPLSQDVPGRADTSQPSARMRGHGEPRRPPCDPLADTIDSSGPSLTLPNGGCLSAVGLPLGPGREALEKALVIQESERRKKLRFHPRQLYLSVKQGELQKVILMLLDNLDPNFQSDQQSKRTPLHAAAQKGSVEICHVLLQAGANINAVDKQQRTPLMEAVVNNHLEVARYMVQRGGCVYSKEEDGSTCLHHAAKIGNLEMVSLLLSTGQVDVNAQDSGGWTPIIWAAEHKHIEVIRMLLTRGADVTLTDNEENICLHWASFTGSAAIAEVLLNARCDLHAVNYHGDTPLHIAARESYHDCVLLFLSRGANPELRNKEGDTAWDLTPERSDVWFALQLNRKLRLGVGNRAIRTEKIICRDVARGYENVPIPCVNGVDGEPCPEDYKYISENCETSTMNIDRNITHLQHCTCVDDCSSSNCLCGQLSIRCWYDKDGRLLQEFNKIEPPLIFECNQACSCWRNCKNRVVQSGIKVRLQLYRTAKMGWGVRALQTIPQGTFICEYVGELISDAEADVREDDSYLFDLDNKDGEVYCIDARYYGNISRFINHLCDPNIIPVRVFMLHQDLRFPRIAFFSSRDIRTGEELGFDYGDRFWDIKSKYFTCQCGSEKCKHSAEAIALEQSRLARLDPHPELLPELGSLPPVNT
# Assay: qHTS Assay for Inhibitors of Histone Lysine Methyltransferase G9a; further: nearly all actives have a fitted effect of over 75% in size
# Details: G9a H3K9 monomethylation, AlphaScreen, 2 h; activity, negative = inhibition: at 59 µM (top of the series) unless noted
# Outline: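 G9a (20 nM) preincubated 15 min RT with compounds, then 500 nM biotinylated H3K9 peptide and 20 uM SAM added; 2 h RT reaction. Monomethyl-H3K9 product detected by AlphaScreen with anti-H3K9me1 antibody, streptavidin donor and anti-rabbit IgG acceptor beads.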
# On the % scale 0 is the no-effect control and ±100 the full control effect; potency means the concentration at half of the fitted maximal effect; tags describe the fitted curve by direction and shape.
Compound,Potency,"activity, negative = inhibition"
O=C1N=C(N2CCCCC2)S/C1=C/C1=Cc2ccccc2OC1,"inconclusive: 50.1 µM [inhibitor, partial curve]",–
Nc1nnc(CCCCCCCCCCc2nnc(N)s2)s1,"inconclusive: 79.4 µM [inhibitor, single point]",–
NS(=O)(=O)c1ccc(CCN2C(=O)CCC2=O)cc1,inactive,–
Cc1ccc(N2CCN(c3c(CN4CCCC4)c(=O)oc4ccccc34)CC2)c(C)c1,inactive,–
OCCCCC#Cc1c(-c2ccsc2)sc2ccccc12,inactive,–
Cc1ccc(-c2nc(SCC(=O)N3CCc4ccccc43)c3c(=O)n(C)c(=O)n(C)c3n2)cc1,inactive,–
CCOC(=O)c1ccc(N2C(=O)CC(N3CCC(C(N)=O)(N4CCCCC4)CC3)C2=O)cc1 (stereo unspecified),"inconclusive: 3.98 µM [inhibitor, full curve, poor fit]",–
C=C1CCC(OC(C)=O)C2(C)CCC3C(C)C(=O)OC3C12O (stereo unspecified),inactive,–
O=C(COCc1cc(-c2ccco2)on1)Nc1cccc(O)c1,inactive,–
CCOC(=O)CCc1c(C)c2ccc(OCc3nn[nH]n3)c(C)c2oc1=O,active: 50.1 µM,–
Cc1ccc(OCC(=O)N2CCN(C(=O)c3ccc([N+](=O)[O-])cc3)CC2)cc1,active: 50.1 µM,–
CC1(C(=O)NCCc2c[nH]c3ccccc23)C=CCN1C(=O)c1ccccc1 (stereo unspecified),"inconclusive: 89.1 µM [inhibitor, single point]",–
COC(=O)CNc1ccc2c(c1)OCO2,active: 8.91 µM,–
O=C(c1ccccc1Sc1ccc([N+](=O)[O-])cc1Cl)N1CCOCC1,"inconclusive: 56.2 µM [inhibitor, partial curve]",–
COc1cc(NC(=O)Nc2nnc(N3CCCCCC3)s2)cc(OC)c1,"inconclusive: 31.6 µM [inhibitor, partial curve, poor fit]",–
CC(C)CN(C(=O)COC(=O)CN1C(=O)c2ccccc2C1=O)c1c(N)n(Cc2ccccc2)c(=O)[nH]c1=O,"inconclusive: 50.1 µM [inhibitor, partial curve]",–
Cc1c(C(=O)Nc2ccc(S(=O)(=O)N(C)C3CCN(C)CC3)cc2)oc2c(Cl)cccc12,"inconclusive: 2.82 µM [inhibitor, partial curve, poor fit]",–
S=c1[nH]nc(-c2ccc3ccccc3n2)n1Cc1ccccc1,"inconclusive: 2.82 µM [inhibitor, full curve, poor fit]",–
COc1ccc(-c2n[nH]c(C)c2-c2cc(OC)ccc2O)cc1,"inconclusive: 1.78 µM [inhibitor, partial curve]",–
Cc1c(Cl)cccc1NC(=S)NNc1ncc(C(F)(F)F)cc1Cl,active: 70.8 µM,–
c1ccc(Nc2cccc3c(Nc4ccccc4)cccc23)cc1,"inconclusive: 15.8 µM [inhibitor, partial curve, poor fit]",–
CC(=O)Nc1ccc(NS(=O)(=O)c2ccccc2)c2ccccc12,inactive,–
O=C(/C(=C/O)N=Nc1ccc(Cl)cc1)c1ccncc1,–,inactive: 16.6% [at 0.501 µM]
C/C(=N\Nc1ccc(C)c(Cl)c1)c1cccnc1,active: 11.2 µM,–

Compound,Potency,"activity, negative = inhibition"
COc1cc(Cl)c(C)cc1NC(=O)COC(=O)CCc1nc2ccccc2c(=O)[nH]1,active: 12.6 µM,–
C=CCN1C(=O)C(O)(CC(=O)c2ccccn2)c2ccccc21 (stereo unspecified),"inconclusive: 39.8 µM [inhibitor, single point]",–
CC(=O)Nc1ccc(S(=O)(=O)Nc2cccc(-c3cn4cccnc4n3)c2)cc1,"inconclusive: 70.8 µM [inhibitor, single point]",–
CC1=NN(C(N)=S)C(=O)C1N=Nc1ccc(F)cc1 (stereo unspecified),"inconclusive: 79.4 µM [inhibitor, single point]",–
CN1CCN(c2ccc(NC(=O)c3cccc(OCc4ccccc4)c3)cc2)CC1,active: 15.8 µM,–
CCN1CCN(C(=S)c2ccc(-c3ccccc3)cc2)CC1,active: 31.6 µM,–
COc1ccc(COC(=O)C2CCN(S(=O)(=O)c3ccc(OC)c(OC)c3)CC2)cc1,–,inactive: 11% [at 12.7 µM]
CSCc1ccc(C(=O)NCC(c2cccs2)N2CCOCC2)cc1 (stereo unspecified),"inconclusive: 8.91 µM [inhibitor, single point]",–
CCOC(=O)c1c(-c2ccccc2)csc1NC(=O)CCN1CCOCC1,"inconclusive: 8.91 µM [inhibitor, full curve, poor fit]",–
O=C(CN1CCOCC1)Nc1ccc(Oc2ccc(NC(=O)CN3CCOCC3)cc2)cc1,active: 11.2 µM,–
CCC1S/C(=N/N=C/c2ccco2)N(Cc2ccc(F)cc2)C1=O (stereo unspecified),"inconclusive: 10 µM [inhibitor, partial curve, poor fit]",–
Cc1oc2cc(Br)c(O)c(Br)c2c1C(=O)c1ccccc1,active: 44.7 µM,–
Nc1nc(N(Cc2ccccc2)Cc2ccccc2)nc(C(F)(F)F)n1,"inconclusive: 3.98 µM [inhibitor, single point]",–
CCCn1c(=N)c(C(=O)NCC2CCCO2)cc2c(=O)n3cc(C)ccc3nc21 (stereo unspecified),"inconclusive: 50.1 µM [inhibitor, partial curve, poor fit]",–
C=CCN(CC=C)C(=S)NC(=O)Cc1cccc2ccccc12,"inconclusive: 12.6 µM [inhibitor, full curve]",–
CC1(OC(=O)C2CCCC2)C(=O)C=C2C=C(c3ccsc3)OC=C2C1=O (stereo unspecified),"inconclusive: 7.94 µM [inhibitor, single point]",–
Cc1cccc(CSc2cn(CC(=O)N3CCOCC3)c3ccccc23)c1,"inconclusive: 28.2 µM [inhibitor, single point] and inconclusive: 28.2 µM [inhibitor, partial curve, poor fit]",–
Cn1c(=O)n(CCOc2ccc(Cl)cc2Cl)c2ccccc21,"inconclusive: 79.4 µM [inhibitor, single point]",–
NC(=O)c1nn(-c2ccccc2)nc1NC(=O)CN1CCCC1,–,inconclusive: -80.1% [inhibitor]
Cc1ccnc(SCc2cc(=O)c(OC(=O)c3ccc(S(=O)(=O)N(C)C)cc3)co2)n1,"inconclusive: 79.4 µM [inhibitor, partial curve]",–
O=S(=O)(/C=C/c1ccccc1)Nc1ccc(N2CCOCC2)cc1,"inconclusive: 3.55 µM [inhibitor, partial curve, poor fit]",–
CCOc1ccc(N2CC(C(=O)NCCc3c[nH]c4ccc(C)cc34)CC2=O)cc1 (stereo unspecified),"inconclusive: 79.4 µM [inhibitor, single point]",–
CC1C2CCC3C4CC=C5CC(N(C)C)CC[C@@]5(C)C4CC[C@@]32CN1C (stereo partly specified),–,inactive: 10.6% [at 12.7 µM]
O=C(Cn1ncc2c3ccccc3n(Cc3ccccc3)c2c1=O)NCCc1ccc(Cl)cc1,inactive,–

Compound,Potency,"activity, negative = inhibition"
CSc1nnc(-c2ccccc2SC)o1,inactive,–
Cc1ccc(NC(=O)Cn2c(=O)n(Cc3nc(-c4ccccc4)no3)c(=O)c3ccccc32)c(C)c1,inactive,–
O=C(CN1CCOc2ccccc21)N1CCCC1,"inconclusive: 89.1 µM [inhibitor, single point]",–
CN1CCc2c(sc(N)c2C(=O)c2ccc(Cl)cc2)C1,"inconclusive: 50.1 µM [inhibitor, partial curve, poor fit]",–
N[C@@H](Cc1ccccc1)c1nnc(SC/C=C/c2ccccc2)o1,"inconclusive: 39.8 µM [inhibitor, full curve]",–
CCCn1nnc(NC(=S)NC(=O)c2cccs2)n1,active: 14.1 µM,–
COC(=O)c1ccccc1CSc1nsc(C)c1C#N,active: 15.8 µM,–
CCOC(=O)c1sc(=S)n(-c2ccccc2OC)c1N,"inconclusive: 3.16 µM [inhibitor, partial curve]",–
O=C(O/N=C\c1ccc(N2CCCCC2)c([N+](=O)[O-])c1)c1cccc(C(F)(F)F)c1,active: 5.01 µM,–
O=C(CN1CCCC1)Nc1ccc(OCc2ccccc2)cc1,"inconclusive: 89.1 µM [inhibitor, single point]",–
CCCCC(=O)NC(=S)Nc1cc(C(=O)O)ccc1OC,inactive,–
Cc1nc(C)c(C(=O)NCc2ccccc2Cl)o1,"inconclusive: 28.2 µM [inhibitor, single point]",–
Cc1nc(C)c(C(=O)Nc2ccc(Oc3ccccc3)cc2)o1,inactive,–
CC1CCCN(Cc2nc3c(c(=O)n(C)c(=O)n3C)n2CC(=O)c2ccccc2)C1 (stereo unspecified),"inconclusive: 56.2 µM [inhibitor, partial curve]",–
COc1cccc(C2CC(=O)Nc3cc4c(cc32)OCCO4)c1OC(C)C (stereo unspecified),active: 44.7 µM,–
O=C(O)C1C2CCC(O2)C1C(=O)Nc1cccc(F)c1 (stereo unspecified),"inconclusive: 89.1 µM [inhibitor, single point]",–
CCOc1ccc(NC(=O)CN(C)C(=O)/C=C/c2ccc(S(=O)(=O)N3CCCCCC3)cc2)cc1OCC,"inconclusive: 25.1 µM [inhibitor, single point]",–
O=C1C2ON(c3ccccc3)C(c3cccnc3)C2C(=O)N1Cc1ccccc1 (stereo unspecified),"inconclusive: 79.4 µM [inhibitor, single point]",–
CC1(c2ccc(O)cc2)NC(=O)N(c2ccccc2)N1 (stereo unspecified),inactive,–
N[C@@H](Cc1ccccc1)C(=O)N1CCC(C(=O)NCC(=O)Nc2ccc(F)cc2)CC1,"inconclusive: 79.4 µM [inhibitor, single point]",–
S=c1[nH]nc(-c2ccc3c(c2)OCO3)n1-c1ccccc1,active: 1.58 µM,–
Cc1noc(NC(=O)c2ccc(Cl)c(Cl)c2)c1Cl,"inconclusive: 50.1 µM [inhibitor, partial curve]",–
CCc1cc(=O)oc2c(CN3CCN(C)CC3)c(O)ccc12,–,inactive: -0.673% [at 2.33 µM]
